Laboratory results: the supplement of paper PMC3334620
Whole data set: some 33,000 sequences, median “E-score (-0.5 to 0.5)” near -0.036, cut for the highest 2% near 0.37. The list shows a part of the results.

These sequences were tested against T1, Yer064c (UniProt P40041) (assay: PBM E-score (8-mer binding enrichment) (E-score (-0.5 to 0.5)); higher = stronger / more preferred TF binding; most listed sequences are background and not binding sites). Conditions: protein concentration: 200 nM; construct: GST-full length.
T1 sequence: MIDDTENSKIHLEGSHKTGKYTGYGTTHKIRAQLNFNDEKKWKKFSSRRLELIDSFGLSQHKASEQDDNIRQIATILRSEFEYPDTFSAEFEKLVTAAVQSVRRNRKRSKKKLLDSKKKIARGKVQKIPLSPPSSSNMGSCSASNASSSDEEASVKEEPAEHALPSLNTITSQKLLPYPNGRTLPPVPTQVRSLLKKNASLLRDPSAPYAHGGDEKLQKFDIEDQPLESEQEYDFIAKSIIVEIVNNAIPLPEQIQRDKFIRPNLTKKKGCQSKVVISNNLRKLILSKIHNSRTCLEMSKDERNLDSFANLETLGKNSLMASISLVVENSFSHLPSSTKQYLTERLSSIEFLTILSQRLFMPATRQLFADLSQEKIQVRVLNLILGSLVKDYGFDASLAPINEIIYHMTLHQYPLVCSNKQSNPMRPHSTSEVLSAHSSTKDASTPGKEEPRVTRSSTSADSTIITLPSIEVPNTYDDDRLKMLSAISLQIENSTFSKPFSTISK
Description: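 Universal 'all 10-mer' protein binding microarrays (Agilent AMADID 015681) probed with GST-tagged S. cerevisiae TFs (full-length or DBD) made by in vitro transcription/translation (PURExpress), about 100-200 nM. Bound TF was detected with fluorescent anti-GST. Each ungapped 8-mer (which stands for itself and its reverse complement) is scored by the PBM enrichment score (E-score), a modified Wilcoxon-Mann-Whitney statistic from -0.5 to +0.5, computed with the Universal PBM Analysis Suite. Scale: above 0.35 generally sequence-specific binding.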

Row | Sequence | PBM E-score
1 | GAGCAGAA | -0.0247
2 | CGCGCCTA | -0.0962
3 | ACTTGGAT | 0.142
4 | GGATAGGA | -0.116
5 | TGAGTAAA | 0.242
6 | AAAAAAAT | -0.13
7 | GAAAACGA | -0.0188
8 | CTCAGAGC | 0.0372
9 | TGGTAACA | -0.124
10 | AGAGTAGC | -0.174
11 | AAATTACC | -0.00692
12 | GAGAAAAC | -0.109
13 | ATATGAAA | 0.0396
14 | ATAATTGG | -0.216
15 | AATATAGT | 0.268
16 | CTGCAGTC | 0.278
17 | TCCGACCA | 0.0238
18 | TATCAGAA | -0.0227
19 | ATGAGTTC | 0.327
20 | AGACTATG | 0.319
21 | ATAACCGG | -0.256
22 | GTATTATA | 0.118
23 | GACTATGA | 0.435
24 | CGGCATAA | -0.242
25 | CCCAAGTC | 0.0126

Row | Sequence | PBM E-score
26 | CACAGAAA | 0.12
27 | CCTCTCAC | -0.213
28 | GAAACGCA | -0.0788
29 | TTAACCAA | 0.125
30 | CTGCCTCC | -0.213
31 | CTCAGGGC | 0.00968
32 | AAAGGGGC | -0.175
33 | AAGCCGGG | -0.164
34 | TCCCTACA | -0.0704
35 | GTAGGAAC | 0.128
36 | GAATACCA | 0.0124
37 | CGTTGTGA | 0.00457
38 | CTTCCGCA | 0.0663
39 | CTATGGAA | 0.0704
40 | CGAGTGGC | -0.301
41 | ACATATCA | -0.0372
42 | CTGGAAAG | 0.0197
43 | CAAACATG | -0.0945
44 | ACCTTGGC | -0.0483
45 | AGTTCGTA | 0.0428
46 | TGCGTCCA | -0.161
47 | ACGTCGTC | -0.0375
48 | CACAATAC | -0.104
49 | AGCCAAAA | 0.00818
50 | CTTGGTTC | -0.0754

Row | Sequence | PBM E-score
51 | CCCGGTAC | -0.19
52 | ATGCATAA | -0.0405
53 | CCTGCACA | -0.181
54 | CTTGGTGC | -0.0416
55 | GAATCCTA | 0.159
56 | ATGCATCC | -0.269
57 | AGTCTCGC | 0.333
58 | CTAGGGCA | -0.247
59 | ATGTGTTA | 0.195
60 | CTCCCCAG | -0.281
61 | TAGGTGAA | 0.147
62 | TCTCTTCA | -0.18
63 | AAAGCCTA | -0.0551
64 | CGCGTAAA | -0.036
65 | GCGACCAA | -0.27
66 | AACGGCAA | -0.0589
67 | CATTCATA | 0.195
68 | ACCCTAAG | -0.159
69 | CTCCTCAC | -0.207
70 | GTAGTCCA | 0.262
71 | TACCGTAA | -0.124
72 | GCGCGGCA | -0.238
73 | AGGGCACG | -0.272
74 | AAAGGGTC | -0.0687
75 | GCTATCGA | -0.11

Row | Sequence | PBM E-score
76 | TCAACACA | 0.198
77 | AGTCCAAT | 0.249
78 | CTCAATAA | 0.165
79 | CCTCGTGC | -0.165
80 | GCTTAGCA | -0.177
81 | ACTCATAG | 0.385
82 | CAAGCGAC | -0.0326
83 | CCTCGGAA | -0.064
84 | GCACTAGA | -0.141
85 | CTAGCCCC | -0.0659
86 | ATCAGAGC | 0.121
87 | ATACGTTA | -0.149
88 | AACGATAG | -0.149
89 | ACCCTCTA | -0.0547
90 | ATAGTCCC | 0.148
91 | AACGACAC | -0.105
92 | ATCCGGAA | 0.135
93 | CATCTTTA | -0.0705
94 | AAAATTAT | 0.0774
95 | ACATGGAT | 0.108
96 | AACTGCGT | 0.127
97 | ATCTTCAT | 0.0285
98 | GATGAACA | -0.015
99 | CTTGTTTC | -0.149
100 | AACTTCGA | -0.0668

Row | Sequence | PBM E-score
101 | CTCAGATA | 0.268
102 | CAGGCGCA | -0.0607
103 | CTTATTGC | -0.2
104 | AAGTATGT | -0.0955
105 | AGAACGTG | -0.217
106 | AATAACAT | -0.0871
107 | CGGTGGGC | -0.341
108 | CAACCTTG | -0.0716
109 | TTGCGCAA | -0.153
110 | TAGGCGGA | -0.0581
111 | AGCAGTGC | -0.107
112 | ACATCGAC | -0.026
113 | TAGGGTCA | -0.096
114 | AATTTACT | 0.105
115 | AGACCGCC | -0.261
116 | CCCGGACG | -0.193
117 | ATCACCAA | 0.291
118 | ATCCCACC | -0.0881
119 | CCCAGAGG | -0.276
120 | CGCATTTA | 0.078
121 | ATCCGAAG | -0.0452
122 | TTCCGCAA | 0.0159
123 | AGGCGCAA | -0.0718
124 | ATATCCCG | -0.128
125 | CATAGTAC | 0.0464

Row | Sequence | PBM E-score
126 | GGTTCCGA | -0.159
127 | GAACCCTC | -0.194
128 | CAGTTTCA | -0.196
129 | CGTCTATC | -0.0526
130 | CGAACTAG | 0.0219
131 | CTTGTAGA | -0.105
132 | GTACCCAC | 0.0716
133 | GTAACATA | -0.141
134 | GTTTGCTA | 0.0898
135 | CCACTATC | -0.176
136 | GAACTTAA | 0.0134
137 | TTAACGAA | 0.183
138 | AGGCACGC | -0.215
139 | GTATGACA | -0.0553
140 | ATGAGAGC | -0.17
141 | CTTCCGCC | -0.183
142 | ATCATTGA | 0.323
143 | TACGTCAA | -0.153
144 | CCTGAGCG | -0.0995
145 | AACTAATG | 0.0134
146 | AACCCAGA | 0.0461
147 | ACCATTAA | 0.0646
148 | ATTCCTTA | 0.0121
149 | AACGGTGT | -0.021
150 | GCAGTGAA | 0.035

Row | Sequence | PBM E-score
151 | CACACATA | 0.0706
152 | CAGTACTC | 0.24
153 | CCGTGACC | -0.0561
154 | CTGTGCAA | 0.00158
155 | CCCTAGTC | 0.326
156 | AGGCTCTC | -0.314
157 | CTGACGCA | -0.152
158 | GAAGGCTC | -0.0881
159 | CCACCGTA | -0.00912
160 | TCTTCGAA | -0.0141
161 | CTAAGAAC | -0.0563
162 | ATAAGAAC | -0.0388
163 | CACATGAA | 0.184
164 | ACGAGTAG | 0.039
165 | CAGCACGG | 0.0779
166 | ATCAGCGG | 0.157
167 | AACTTATA | 0.0736
168 | CTTCGACC | -0.0555
169 | AATTTGCC | -0.18
170 | ATACCAAT | -0.109
171 | GATTAGCC | 0.254
172 | CAATGCCG | -0.288
